The target of the test is T1, hIL-18Ra (human, UniProt Q13478).
T1 chain: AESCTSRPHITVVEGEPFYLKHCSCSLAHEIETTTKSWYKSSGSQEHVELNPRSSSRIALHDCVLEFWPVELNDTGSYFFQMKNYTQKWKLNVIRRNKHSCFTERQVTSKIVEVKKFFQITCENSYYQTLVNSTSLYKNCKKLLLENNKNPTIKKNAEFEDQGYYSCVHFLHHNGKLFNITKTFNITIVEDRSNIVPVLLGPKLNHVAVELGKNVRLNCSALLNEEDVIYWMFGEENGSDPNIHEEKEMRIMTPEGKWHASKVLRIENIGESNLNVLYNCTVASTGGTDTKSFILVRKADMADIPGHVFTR
Kind of test: BLI, 32 nM. Background: In BLI a coated tip is dipped into the sample, and binding shifts an interference pattern.

B1: proIL-18 (protein)
chain: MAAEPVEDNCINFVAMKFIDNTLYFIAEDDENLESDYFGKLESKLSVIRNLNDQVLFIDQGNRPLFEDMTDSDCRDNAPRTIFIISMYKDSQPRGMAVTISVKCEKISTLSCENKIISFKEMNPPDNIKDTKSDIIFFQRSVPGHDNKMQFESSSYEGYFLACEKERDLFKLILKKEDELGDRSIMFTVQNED
Regarding B1, the binding result is given as “no binding”.

Source of the values: patent US20260374834 (published 2026).
